# Results: the RNAGym collection of RNA variant scans (doi:10.7554/elife.90254)
# The source gives no read counts; variants with many changes may rest on few reads.
# B1: LINE1-mini (parent)
# chain: GGCAGAGCUCAACACAGCGUGGCAAAGUGGCUGUGGCUAGACUGCC
# Variants of: B1
# Assay: self-cleavage, relative activity (ratio to wild type); higher = more cleavage; in vitro, sequencing; the parent is a self-cleaving ribozyme
row,Variant,self-cleavage
1,A4U G5U G22C A26G G33U G36A A39U C45G,0.02
2,A4C A12U G27C G40U C42U,0.02
3,G1U A25C C31G C42U,0.02
4,G1A G2A A41U,1.87
5,C8U C23G G30C G35C A39G G40A,0.08
6,G2U C13A G22C C42U,0.06
7,G7C A24U G27C G30A C31A G44A,0.23
8,C3U A12U A26C G36A C37A U43G,0.01
9,C10A A12C A14G A16G C46A,0.02
10,C10A A16U G27U U32A,0
11,A6G C18A G29C,0.23
12,C8A U20A G22A,0.05
13,C10U A11G G22C G27A C31G,0.01
14,A4C C10G C15G C18U G19C U38G,0.01
15,C10G G17A C18A U38C G40C C45U,0.01
16,A11C G19U U20G C23A C45U,0.13
17,U20C U34C A39U,0.16
18,C18A G19A G36U C46U,0.04
19,G21A G35U U38C C46A,0.05
20,G1A A41C C45U,0.01
21,G5A G22U U32C,0.09

row,Variant,self-cleavage
1,C3G G19U G22C A24U,0.1
2,G1U A12G C31A G40U,0
3,G2C U9A G36U C42A,0.03
4,G19C U20C A25G U43A,0
5,A12G G29U C37U,0.01
6,A14U G30U G33A G36C,0.1
7,C3U G7A A12G,0.12
8,A6C A16C G17U C18A C37U,0.11
9,G7A C8U C18G G22A G40C C46A,0.14
10,U9G U20G G29U,0.24
11,G1C C8A A11U A14U G21C C23U U32C,0.01
12,A14U G19C A39G,0.06
13,A4U U20G C31A,0.03
14,G7C A14G G33C C46A,0.1
15,C8A U9A A14U C31G,0.09
16,G2C C3G C13U C18U C45A,0.01
17,G2A G5A C31A,0.18
18,G5A A12C G17A G21U,0.01
19,C3U G19U A26C G40A,0.08
20,C3U A4C G17U G21U A39G,0.02
21,C3U G7C C10U,0.11

row,Variant,self-cleavage
1,A25U A41C C42G,0.25
2,A4C A12U G44U,0.06
3,G27A C37U C42U,0.02
4,A4C C31U C37A U43A G44C,0
5,A6G G17C C31G,0
6,A6C G7A G21C G30U,0.05
7,G7A G29U C42A,0.04
8,G1C C3A C8A,0.39
9,A4C C15A G17C G21U C31G C42A,0.09
10,C3G A14U G22A U32G A39G U43C,0.17
11,C18U G22U G36A C42G,0.02
12,A12G G17C G21C,0.01
13,U9G C23A U34C G40C,0
14,G2A G35C G36A,0.36
15,A6G G29A G36A U43C G44C,0.12
16,C3A A11G G22C G35C G36C G44C C46A,0
17,C3G C15A U43G G44C,0.06
18,A6U A26G G29A,0.4
19,G7A C13G C18A C46G,0.17
20,G2C A4G G21C C31U C37U,0.02
21,A4G C31A C45G C46U,0.02

row,Variant,self-cleavage
1,G17U G27U C46U,0.53
2,C3A C15A A24C A26C U34C A41U,0.15
3,A12G C15A A16U G29C C46A,0.09
4,G22C C31U C37A A41G,0.05
5,C3U A14U C15G U20G A25G U32C,0.02
6,G7A C10G G35C G40U,0.02
7,U20A G35C A39G C46A,0.1
8,A12C G29C U32A U34A,0
9,C8A G17A G35A A39U A41C,0.52
10,U20A C31U G35A,0.04
11,A12G G21C C45U,0.01
12,A24G G30C G44C,0.08
13,G2C G40A G44U,0.2
14,A24G G29C G40C,0.04
15,C8A A25C U43C,0.04
16,G19U G30C C31U,0.6
17,G21A G22C C46A,0.89
18,G1A C10A A12C G30C,0.01
19,A4U G5C C46U,0.13
20,A6U A12U U38C,0.32
21,C3A U9A C31A G40A,0.07
